Data: the supplement of paper PMC10338343
± gives the standard deviation. In all, about 3,700 sequences were measured (“pre-steady-state target cleavage rate”: median about 0.02, highest 2% from about 0.23 on). This is a selection; strong and weak results do not stand in their true shares.

What follows are sequences tested on MILI (PIWIL2) piRISC loaded with Kctd7 piRNA (26 nt) (assay: pre-steady-state target cleavage rate (min^-1); MIWI and MILI are mouse PIWI proteins and EfPiwi is from a freshwater sponge; tags in brackets are library labels; higher = faster piRNA-guided slicing of the target). Settings: guide: Kctd7 piRNA 5'p-UGUUAAUCUCUCAGAGAAGGUGACAG; auxiliary factor: 500 nM mouse GTSF1.
Method in brief: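 For Cleave-'n-Seq, a transcribed, DNA-blocked target RNA library […] met 1 nM active affinity-purified piRISC with one synthetic guide at 33 °C for 0–8 or 0–960 min in HEPES–potassium acetate buffer, with or without 500 nM GTSF1 partner protein. Uncleaved targets were sequenced and normalised to depth and weakly complementary targets, with three trials pooled and k3 capped at 0.0001 min^-1. A burst-and-steady-state fit supplied the pre-steady-state cleavage rate.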
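Note: 1 nM active piRISC with 0.1 nM target library at 33 °C single turnover.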

Sequence | pre-steady-state target cleavage rate
UAGUGACUCAGCUUCUCUGAGAGUUUAACA | 0.0246 ± 0.006
UAGUGAGUCACCUUCUCAGAGAGAUUAACA | 0.173 ± 0.022
UAGUGACACACCUUCUCAGAGAGAUUUUGA | 0.0098 ± 0.0042
UAGUGAGUCACCAUCUCUGAGAGAUUAUCA | 0.113 ± 0.029
UAGUGAGUCACCUAGUCUGAGAGAUUAACA | 0.11 ± 0.01
UAGUGACUCAGCCUUCUCUGAGAGAUUAACA | 0.0676 ± 0.007
UAGUGUCUCACCUUCUCUGAGAGAUUAACA | 0.224 ± 0.014
UAGUGAGUCACUUUCUCUGAGAGAUUAACA | 0.177 ± 0.011
UAGUGUGUCACCUUCUGUGAGAGAAUAACA | 0.0347 ± 0.0075
UAGUGAGUCACCUACUCUGAGUGAUUAACA | 0.00445 ± 0.0041
UAGUGACAGUCCUUCUCUGAGAGCUUAACA | 0.0198 ± 0.0034
UAGUGACAGUGGAAGUCUGAGAAAUUAACA | < 0.0001
UAGUGUGUCAGCUUCUCUGAGUGAUUAACA | 0.00574 ± 0.003
UAGUGACACACCUUCUCUGAGAGUAAAACA | 0.0332 ± 0.014
UAGUGACUCACCUUCUCUGAGAGAUUAUACA | 0.114 ± 0.021
UAGUGACUCACCUUCUGAGAGAGAUUAACA | 0.0543 ± 0.0096
UAGUGUGUCUCCUUCUCUGAGAGAUAAACA | 0.00708 ± 0.0048
UAGUCUGUCACCUUCUCUGUGAGAUUAAGA | 0.0263 ± 0.0088
UAGUGACUCACCUUCUCAGAGAGAUAUUGA | 0.00678 ± 0.003
UAGUCUGUCACGUUCACUGAGAGAUUAACA | 0.119 ± 0.008
UAGUGACUCACCUUCUCAGAGAGAUUAAGA | 0.0422 ± 0.0072
UAGUGACAGUGGAACUGUGAGAGAUUUACA | < 0.0001
UAGUGACACACCUUCCCUGAGAGAUUAACA | 0.21 ± 0.054
UAGUGACACACCUACUCUCAGAGAUUAACA | 0.0247 ± 0.0061

Sequence | pre-steady-state target cleavage rate
UAGUGACAGUGGAAGAGACAGAAGAUUAACA | < 0.0001
UAGUGACUCACGUUCUGUGAGAGAUUAACA | 0.0941 ± 0.014
UAGUGAGUCACCAUCUCUGAGAGAUUAUGA | 0.023 ± 0.01
UAGUGACAGUCCUUCUCUGAGAGACUAACA | 0.0185 ± 0.004
UAGUGACAGUGGAAGACUCACAGAUUAACA | < 0.0001
UAGUGAGUCACCUUCUCUGAGAGAAUUAACA | 0.318 ± 0.059
UAGUGUGUCUCCUUCUCUGUGAGAUUAACA | 0.0296 ± 0.0065
UAGUCUGUCACCUUCCCUGAGAGAUUAACA | 0.203 ± 0.034
UAGUGACUCAGCUUCUCUGAGAGAAUAACA | 0.00794 ± 0.003
UAGUCUGUCACGUACUCUGAGAGAUUAACA | 0.129 ± 0.0057
UAGUCAGUCACCUACUCUGAGAGAUUAACA | 0.198 ± 0.0093
UAGUGACAGACGUUCUCUGAGAGAUUAUCA | 0.0188 ± 0.0066
UAGUCUGUCACCUUCUCUCUGAGAUUAACA | 0.00967 ± 0.0028
UAGUGACUCUCCUUCUCUGACAGAUUAACA | 0.0546 ± 0.0059
UAGUGACAGUGGUCUCUGAGAGAUUAACA | 0.00469 ± 0.0014
UAGUCUGUCACCUUGAGUGAGAGAUUAACA | 0.028 ± 0.0049
UAGUGACAGUGGAAGUCUGACAGUUUAACA | < 0.0001
UAGUGAGUCACCUUCUCAGAGAGAAUAACA | 0.0207 ± 0.0083
UAGUGACAGUGGUUUCUGAGAGAUUAACA | 0.00579 ± 0.0018
UAGUGACACACCUUCUCACUGAGAUUAACA | 0.00782 ± 0.0033
UAGUGACUCACCUUCUCUGUAGAGAUUAACA | 0.00534 ± 0.002
UAGUGACAGUGGAUCUCUGGAGAUUAACA | < 0.0001
UAGUGACACACCUUCUCUGAGAGAUAACA | 0.0132 ± 0.0057
UAGUGACUCGACCUUCUCUGAGAGAUUAACA | 0.0771 ± 0.0072

Sequence | pre-steady-state target cleavage rate
UAGUGAGUCACCUUGACUGAGAGAUUAACA | 0.0389 ± 0.008
UAGUCUGUCUACCUUCUCUGAGAGAUUAACA | 0.0395 ± 0.009
UAGUGAGUCAGCUUCUCUGUGAGAUUAACA | 0.0478 ± 0.0051
UAGUGUGUCACCUUCUCGAGAGAUUAACA | 0.0644 ± 0.013
UAGUGACUCACCUUCUCUUAGAGAUUAACA | 0.0571 ± 0.0067
UAGUCUGUCUCCUUCUCUCAGAGAUUAACA | 0.0427 ± 0.0053
UAGUGACAGACCUUCUCUGAGAGUUAAACA | 0.0116 ± 0.0061
UAGUCUGUCACCUUCUCUGAGAGAUUAUGA | 0.0358 ± 0.012
UAGUGACACACCUUCUCAGAGAGAUUAAGA | 0.0281 ± 0.011
UAGUCUGAUCACCUUCUCUGAGAGAUUAACA | 0.192 ± 0.012
UAGUGUGUUACCUUCUCUGAGAGAUUAACA | 0.119 ± 0.017
UAGUGACUGUGCUUCUCUGAGAGAUUAACA | 0.177 ± 0.0085
UAGUGACAGACCUUCUCUGAGAGUAUUAACA | 0.0651 ± 0.0098
UAGUGUGACACCUUCUCUGAGACAUUAACA | 0.0419 ± 0.01
UAGUGACACACCAUCUCUGAGUGAUUAACA | 0.00584 ± 0.0032
UAGUGUGUCUCCUUCUCUGAGAGAUUAAGA | 0.0383 ± 0.011
UAGUGACAGACGCUUCUCUGAGAGAUUAACA | 0.0399 ± 0.0079
UAGUGAGUCACCUUUCUGAGAGAUUAACA | 0.0759 ± 0.019
UAGUGACACUCGUUCUCUGAGAGAUUAACA | 0.0811 ± 0.0066
UAGUGAGUCUGCUUCUCUGAGAGAUUAAGA | 0.0302 ± 0.0066
UAGUGUGUCACCUUCUCAGAGAGAUUUACA | 0.219 ± 0.042
UAGUGACUCACCUUCUCAGAGAGAUUAUGA | 0.0325 ± 0.0095
UAGUGACAGUCCUUCUCUCAGAGAUUAACA | 0.0166 ± 0.005
